Results published in article PMC4336329 (PLoS ONE, 2015).
About 14,000 (4.5%) of roughly 310,000 compounds showed an effect of 50% or more. Effects have a minus sign here. This is one part of the list.

Molecular target: human ether-à-go-go-related gene (hERG) potassium channel (human, UniProt Q12809)
Test: primary screen, population patch clamp on CHO cells stably expressing hERG
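Further: peak tail current of the secondary pulse compared with the same well before compound.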

Chain of human ether-à-go-go-related gene (hERG) potassium channel (Q12809 whole entry, looked up): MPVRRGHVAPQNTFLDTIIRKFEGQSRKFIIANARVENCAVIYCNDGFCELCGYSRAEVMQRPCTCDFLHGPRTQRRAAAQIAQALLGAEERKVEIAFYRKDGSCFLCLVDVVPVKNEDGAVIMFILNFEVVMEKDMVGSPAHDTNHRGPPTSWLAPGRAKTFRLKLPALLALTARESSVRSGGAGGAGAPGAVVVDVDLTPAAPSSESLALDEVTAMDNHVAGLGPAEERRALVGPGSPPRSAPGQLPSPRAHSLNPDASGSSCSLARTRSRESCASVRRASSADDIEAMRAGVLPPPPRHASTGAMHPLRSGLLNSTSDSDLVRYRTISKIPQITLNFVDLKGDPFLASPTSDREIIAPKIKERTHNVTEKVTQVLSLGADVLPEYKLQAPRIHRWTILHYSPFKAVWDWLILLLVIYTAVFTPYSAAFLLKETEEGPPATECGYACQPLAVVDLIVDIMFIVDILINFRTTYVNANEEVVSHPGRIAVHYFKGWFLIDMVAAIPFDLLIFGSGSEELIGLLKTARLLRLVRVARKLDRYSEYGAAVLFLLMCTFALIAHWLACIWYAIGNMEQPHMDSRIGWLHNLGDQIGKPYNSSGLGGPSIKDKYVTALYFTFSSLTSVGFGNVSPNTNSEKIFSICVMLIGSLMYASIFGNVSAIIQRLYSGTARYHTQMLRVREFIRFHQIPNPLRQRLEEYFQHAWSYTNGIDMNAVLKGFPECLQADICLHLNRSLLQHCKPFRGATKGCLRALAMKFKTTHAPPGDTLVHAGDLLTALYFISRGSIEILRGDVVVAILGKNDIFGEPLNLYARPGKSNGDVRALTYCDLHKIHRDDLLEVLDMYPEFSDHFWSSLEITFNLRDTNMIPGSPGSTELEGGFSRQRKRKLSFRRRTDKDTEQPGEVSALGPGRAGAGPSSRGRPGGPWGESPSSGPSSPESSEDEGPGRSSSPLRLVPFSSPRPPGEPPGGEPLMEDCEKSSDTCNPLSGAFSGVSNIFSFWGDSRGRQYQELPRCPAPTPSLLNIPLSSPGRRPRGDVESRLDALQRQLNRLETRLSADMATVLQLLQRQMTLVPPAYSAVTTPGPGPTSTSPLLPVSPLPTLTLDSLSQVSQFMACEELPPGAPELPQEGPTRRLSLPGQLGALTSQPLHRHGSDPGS

Compared with `O=C(NCc1ccccn1)C(=O)Nc1nc(-c2ccccc2)cs1`, `Cc1cc(NC(=O)NCc2ccccc2)c(=O)n(Cc2ccccc2F)c1` is higher in “hERG current change (%, negative = inhibition) at 10uM” value: 10.3% for the first, 18.5% for the second.

First: CC(C)c1onc(C(=O)NCc2ccc(Cl)cc2)c1[N+](=O)[O-]
Second: Cc1nn(-c2ccccc2)c(Cl)c1C(=O)NCC(C)c1ccccc1 (stereo not shown)
The “hERG current change (%, negative = inhibition) at 10uM” value of the first is higher: 11% for the first, -26.1% for the second.

Going from `Cc1ccccc1-c1nnc(NC(=O)CSc2nc3ccccc3s2)s1` to `O=C(COC(=O)CCc1nc2ccccc2c(=O)[nH]1)Nc1ccccc1OC(F)F`, the “hERG current change (%, negative = inhibition) at 10uM” value rises from 6.88% to 16.8%.

First: O=C(Nc1ccccc1C(=O)N/N=C/c1ccc(O)cc1)c1ccccc1
Second: COc1cc(C(=O)N/N=C/c2ccc(OC(=O)c3ccccc3)c(OC)c2)ccc1O
The “hERG current change (%, negative = inhibition) at 10uM” value of the first is lower: 6.19% for the first, 19.9% for the second.

Going from `COc1ccc(NC(=O)Nc2cc(C)ccc2F)cc1` to `COc1ccc(/C(N)=N/OC(=O)Cc2ccccc2OC)cc1`, the “hERG current change (%, negative = inhibition) at 10uM” value falls from 0.822% to -8.85%.

Compared with `COCCCNC(=O)CCn1c(=O)c2ccccc2n(CC(=O)NCCc2ccc(OC)c(OC)c2)c1=O`, `COc1ccc(CCNC(=O)c2ccccc2NC(=O)c2ccco2)cc1OC` is lower in “hERG current change (%, negative = inhibition) at 10uM” value: -0.597% for the first, -24% for the second.

Compared with `Cc1ccc(-c2nc(SCC(N)=O)c(C#N)c3c2CCCC3)cc1`, `COc1cc(-c2cc(-c3ccc(F)cc3)nc(N)c2C#N)ccc1O` is higher in “hERG current change (%, negative = inhibition) at 10uM” value: -4.07% for the first, 17.9% for the second.

Going from `COC(=O)c1cc(Cl)nc2ccccc12` to `CO/N=C\CC(=O)Nc1ccc(Cl)c(Cl)c1`, the “hERG current change (%, negative = inhibition) at 10uM” value rises from -7.89% to 19.6%.

First: COc1ccc(N2C(=O)C3CCCN3C2c2cccc(C)c2)cc1Cl (stereo not shown)
Second: COc1ccc(NC(=O)C2CCN(S(=O)(=O)c3ccc4c(c3)CC(C)N4C(C)=O)CC2)cc1OC (stereo not shown)
The “hERG current change (%, negative = inhibition) at 10uM” value of the first is lower: -31.3% for the first, 20% for the second.

First: CC(C)C[C@@H](CSc1ccc(Br)cc1)N1CCN(CCc2ccccc2)CCC1=O
Second: CCn1c(=O)c([N+](=O)[O-])c(NCCc2ccccc2)c2ccccc21
The “hERG current change (%, negative = inhibition) at 10uM” value of the first is lower: -70.6% for the first, 17.7% for the second.

Compared with `c1ccc(-c2ccc(C3=Nn4c(Cn5nnc6ccccc65)nnc4SC3)cc2)cc1`, `Cc1ccc(Cn2nnc3c(=O)n(CC(=O)N4CCCc5ccccc54)cnc32)cc1` is lower in “hERG current change (%, negative = inhibition) at 10uM” value: 15.2% for the first, -4.61% for the second.

Compared with `CCOC(=O)[C@]1(C#N)[C@@H]2C=CC(C(N)=O)=CN2[C@@H](C(N)=O)[C@@H]1c1ccc(F)cc1`, `C#CCNC(=O)C1=C[C@@H](c2ccc(Br)cc2)[C@H](CCCO)[C@@H](OCC)O1` is lower in “hERG current change (%, negative = inhibition) at 10uM” value: 5.67% for the first, -28.4% for the second.

Going from `COc1ccc(N(CC(=O)NC2CCCC2)C(=O)CCC(=O)Nc2cc(C)on2)cc1OC` to `COc1ccccc1NC(=O)CN1CCN(CC(=O)Nc2ccc(OC)c(OC)c2)CC1`, the “hERG current change (%, negative = inhibition) at 10uM” value falls from -6.45% to -24.4%.

First: CCn1nc2cc(C(=O)NCCc3cccs3)ccc2c1OC
Second: Cc1cc(C)n(-c2ccc(C(=O)OCC(=O)Nc3ccc(S(=O)(=O)N4CCCCC4)cc3)cc2)n1
The “hERG current change (%, negative = inhibition) at 10uM” value of the first is lower: -12.5% for the first, 25.2% for the second.

First: CCCCNC(=O)C(Sc1ccccc1)c1ccccc1 (stereo not shown)
Second: O=P(NC(c1ccccc1)c1ccccc1)(Oc1ccccc1)Oc1ccccc1
The “hERG current change (%, negative = inhibition) at 10uM” value of the first is higher: 0.0978% for the first, -8.12% for the second.

Compared with `CCS(=O)(=O)N1CCN(c2ccc(C(=O)NC34CC5CC(CC(C5)C3)C4)cc2[N+](=O)[O-])CC1`, `CN1C(=O)C(=Cc2cc([N+](=O)[O-])ccc2N2CCCCC2)C(=O)N(C)C1=O` is higher in “hERG current change (%, negative = inhibition) at 10uM” value: -10.9% for the first, 19.3% for the second.

Compared with `Cc1cc2ncn(CC(O)COC3CCCCC3)c2cc1C` (stereo not shown), `CC(=O)C[C@H]1c2cc(C(F)(F)F)ccc2S(=O)(=O)N1C1CCCCC1` is lower in “hERG current change (%, negative = inhibition) at 10uM” value: 3.46% for the first, -4.42% for the second.

Compared with `Cc1ccc(CN2CC(C(=O)OCc3ccccc3Cl)CC2=O)cc1` (stereo not shown), `CCc1ccc(S(=O)(=O)/N=C2\C=CC(=O)c3ccccc32)cc1` is higher in “hERG current change (%, negative = inhibition) at 10uM” value: 0.354% for the first, 7.42% for the second.

First: Cc1ccc(Cl)c2sc(NC(=O)C3=COCCO3)nc12
Second: Cc1cccn2cc(-c3ccc4c(c3)NC(=O)CO4)nc12
The “hERG current change (%, negative = inhibition) at 10uM” value of the first is higher: 6.73% for the first, -26.9% for the second.

Going from `O=CNC1CCCc2c1[nH]c1ccc(Cl)cc21` (stereo not shown) to `COc1ccc2c3c([nH]c2c1)C(C)NCC3` (stereo not shown), the “hERG current change (%, negative = inhibition) at 10uM” value rises from -9.15% to -2.31%.

First: O=C(CCN1CCN(S(=O)(=O)c2ccc(Cl)cc2)CC1)Nc1ccc(F)cc1
Second: COc1ccc(/C=C/C(=O)Nc2ccccc2)cc1S(=O)(=O)N1CCOCC1
The “hERG current change (%, negative = inhibition) at 10uM” value of the first is higher: -35.2% for the first, -52.2% for the second.

Going from `O=C(Cn1nc(CNc2ccc(Cl)cc2)[n+]2c1CCCCC2)c1ccccc1.[Br-]` to `Cn1cccc1CC(=O)N/N=C/c1ccc(Cl)cc1`, the “hERG current change (%, negative = inhibition) at 10uM” value falls from 9.17% to 2.15%.

Compared with `COc1cc(NC(=O)C2C3CCC(O3)C2C(=O)O)cc(OC)c1` (stereo not shown), `CC(C)COC(=O)N1CC(O)CC1C(=O)Nc1ccc2c(c1)OCO2` (stereo not shown) is lower in “hERG current change (%, negative = inhibition) at 10uM” value: 26.1% for the first, 2.36% for the second.

Going from `COc1ccc(C(CCNCc2ccc(OC)c(OC)c2)c2ccc(F)cc2)cc1` (stereo not shown) to `CCOc1ccc(S(=O)(=O)NCCC(=O)NCCc2ccc(OCC)c(OCC)c2)cc1`, the “hERG current change (%, negative = inhibition) at 10uM” value rises from -71.3% to 8.73%.

Compared with `S=C(NC1CCCCC1)N1CCN(C/C=C/c2ccccc2)CC1`, `Cn1c(=O)n(CCCO)c(=O)c2c1nc1n2CCCN1Cc1ccccc1` is higher in “hERG current change (%, negative = inhibition) at 10uM” value: -21.8% for the first, -9.65% for the second.

Compared with `COc1cc2c(C)nc3c(cnn3-c3ccccc3)c2cc1OC`, `COc1cc(C(=O)Nc2nc(OC)c(-c3ccccc3)c(OC)n2)cc(OC)c1OC` is higher in “hERG current change (%, negative = inhibition) at 10uM” value: -16.1% for the first, -0.662% for the second.

Going from `Cc1ccc(C2=[N+]([O-])C(C)N(O)C2(C)C)o1` (stereo not shown) to `CC(c1ccccc1)C1CC(=O)N(Cc2ccco2)C1=O` (stereo not shown), the “hERG current change (%, negative = inhibition) at 10uM” value rises from 3.66% to 25.9%.

With `CCOC(=O)c1c(NC(C)=O)sc2c(OCCN(CC)CC)c(Br)ccc12` the “hERG current change (%, negative = inhibition) at 10uM” value was -54.8%.
